This is an account of results in PMC6249242, “Metabolic engineering of Escherichia coli for de novo biosynthesis of vitamin B12” (Nature Communications, 2018).

This assay has as its target PduX (Salmonella enterica, UniProt Q9XDM4). Put plainly: E. coli expressing pduX, HPLC of Thr-P in culture. The format is cell-based. Particulars: M9Y medium, 5 g/l L-threonine, 28 °C.
Chain of UniProt Q9XDM4 (Q9XDM4 whole entry): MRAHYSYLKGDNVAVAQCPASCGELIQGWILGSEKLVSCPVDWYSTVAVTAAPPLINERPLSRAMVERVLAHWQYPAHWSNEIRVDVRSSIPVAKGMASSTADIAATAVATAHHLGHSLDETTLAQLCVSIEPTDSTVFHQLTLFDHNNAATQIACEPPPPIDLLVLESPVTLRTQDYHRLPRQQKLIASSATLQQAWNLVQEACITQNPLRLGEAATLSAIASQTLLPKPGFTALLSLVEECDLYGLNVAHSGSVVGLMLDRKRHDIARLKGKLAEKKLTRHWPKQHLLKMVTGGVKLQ

As to `C[C@@H](O)[C@H](N)C(=O)O` [L-threonine], the “E. coli expressing pduX, HPLC of Thr-P in culture” value is listed as “BluE/PduX strains FH296/FH298 both produced L-threonine O-3-phosphate (Thr-P) (HPLC analysis)”.
